From paper PMC4336329 (PLoS ONE, 2015)
The campaign covered roughly 310,000 compounds. About 2,200 (0.71%) showed an effect of 50% or more. The effect is printed as a negative number. This is one part of the list.

These molecules were tested against human ether-à-go-go-related gene (hERG) potassium channel (human, UniProt Q12809) (assay: primary screen, population patch clamp on CHO cells stably expressing hERG).
human ether-à-go-go-related gene (hERG) potassium channel, sequence (Q12809 whole entry, looked up): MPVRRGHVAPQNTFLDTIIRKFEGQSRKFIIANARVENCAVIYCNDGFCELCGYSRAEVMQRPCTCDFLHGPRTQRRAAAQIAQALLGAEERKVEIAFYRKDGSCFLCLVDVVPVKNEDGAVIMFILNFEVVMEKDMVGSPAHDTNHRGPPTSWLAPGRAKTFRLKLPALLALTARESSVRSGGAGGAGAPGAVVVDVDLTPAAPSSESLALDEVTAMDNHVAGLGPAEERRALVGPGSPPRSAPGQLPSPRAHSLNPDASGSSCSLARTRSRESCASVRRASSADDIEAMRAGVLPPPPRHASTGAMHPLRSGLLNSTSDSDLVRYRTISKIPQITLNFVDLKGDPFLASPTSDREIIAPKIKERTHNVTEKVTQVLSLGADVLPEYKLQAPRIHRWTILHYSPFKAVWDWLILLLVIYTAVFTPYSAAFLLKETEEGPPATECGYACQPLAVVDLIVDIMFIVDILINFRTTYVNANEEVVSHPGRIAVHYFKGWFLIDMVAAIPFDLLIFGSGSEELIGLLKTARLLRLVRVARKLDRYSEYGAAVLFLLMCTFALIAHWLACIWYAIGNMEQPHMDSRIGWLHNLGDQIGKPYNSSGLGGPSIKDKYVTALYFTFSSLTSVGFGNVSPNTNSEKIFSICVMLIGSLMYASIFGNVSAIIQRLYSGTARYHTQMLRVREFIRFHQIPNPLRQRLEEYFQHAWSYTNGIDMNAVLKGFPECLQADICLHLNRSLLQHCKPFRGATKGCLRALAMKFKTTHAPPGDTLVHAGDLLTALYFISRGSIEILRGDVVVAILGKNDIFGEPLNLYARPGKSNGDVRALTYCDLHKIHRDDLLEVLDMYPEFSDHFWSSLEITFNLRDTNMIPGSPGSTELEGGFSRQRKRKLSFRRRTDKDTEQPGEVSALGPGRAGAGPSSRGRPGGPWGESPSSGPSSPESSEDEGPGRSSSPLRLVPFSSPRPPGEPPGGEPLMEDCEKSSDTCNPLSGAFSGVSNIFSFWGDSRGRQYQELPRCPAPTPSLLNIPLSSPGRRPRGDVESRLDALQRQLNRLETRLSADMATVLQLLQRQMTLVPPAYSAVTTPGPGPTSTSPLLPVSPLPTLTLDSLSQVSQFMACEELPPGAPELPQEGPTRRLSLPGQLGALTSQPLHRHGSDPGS

Structure (SMILES) | hERG current change (%, negative = inhibition) at 1uM
Cc1cccc(NC(=O)CSc2nc(C)c(Cc3ccccc3)c(=O)[nH]2)c1C | 13.5%
COc1ccc(NC(=S)N(CCc2c(C)[nH]c3ccc(C)cc23)Cc2cccs2)cc1 | 9.22%
O=C(CN1CCC(C(=O)O)CC1)Nc1ccccc1Oc1ccccc1 | 16.1%
COc1ccc(NC2=CC(=O)CC(C)(C)C2)cc1OC | 9.31%
COc1ccc(NC(=O)C(c2ccc(C)cc2)N(C)C(=O)CNC(C)=O)cc1 (centres unmarked) | -1.11%
Cc1ccc(-c2nn(-c3ccccc3)cc2C=C2C(=O)CC(C)(C)CC2=O)cc1 | 6.2%
CCC(=NCCCN(CC)CC)c1c(O)n(C2CCCCC2)c(=O)[nH]c1=O | -37.3%
COc1ccc(S(=O)(=O)NCCOc2ccccc2)cc1-n1cnnn1 | 5.24%
Cn1c(N2CCCC2)nc2c1c(=O)n(Cc1cccc(F)c1)c(=O)n2C | -5.21%
C=C(C)C(=O)Nc1cccc(C(C)=O)c1 | 12.3%
O=C(CN(C(=O)CCC(=O)Nc1nccs1)c1ccccc1F)NCc1ccccc1 | 7.67%
Cc1oc(-c2cccc(Cl)c2)nc1CN1CCCC(C(=O)NCc2ccco2)C1 (centres unmarked) | -45%
C=CCNC(=O)COc1ccc(N(C)S(=O)(=O)c2ccc(NC(C)=O)cc2)cc1 | 11.6%
O=C(NCC1CCCO1)c1ccc(Oc2ccc([N+](=O)[O-])cc2Cl)cc1 (centres unmarked) | 1.67%
COc1ccc(OC)c(CNn2c(-c3ccccc3F)nc3ccccc3c2=O)c1 | 4.44%
COc1ccc(N2C(=O)c3ccccc3S2(=O)=O)cc1 | 8.28%
COc1ccc(C(=O)NC2CCc3ccccc32)cc1OC1CCN(C(C)=O)CC1 (centres unmarked) | 9.68%
COc1ccc(Nc2cc(=O)oc3ccccc23)cc1 | 9.98%
Cc1cc(C)n(C(=O)COc2c(C)cccc2C)n1 | 11.5%
CC/C(=N\O)C(C)(C)/[N+]([O-])=C/c1ccc(Br)cc1 | 9.75%
C[C@@]12CCC3[C@@](CCC4[C@@]3(C)CCC[C@@]4(C)C(=O)N3CCCCC3)(CC1=O)C2 (some centres unmarked) | 13.8%
O=C(Nc1ccc2c(c1)OCO2)N1CCN(Cc2ccco2)CC1 | 4.09%
CCCNC(=O)C1CCN(S(=O)(=O)c2ccc(-c3nn[nH]n3)cc2)CC1 | 6.57%
COc1ccc(NC(=O)COc2ccc(N(C)S(=O)(=O)c3ccc(Cl)cc3)cc2)cc1 | 10.5%
C[C@]1(OC(=O)/C=C/c2ccccc2)C[C@@H](O)[C@]2(O)C=CO[C@@H](O[C@@H]3O[C@H](CO)[C@@H](O)[C@H](O)[C@H]3O)[C@@H]21 | 7.33%
COc1ccccc1N1CCN(C(=O)CCS(=O)(=O)c2ccc3c(c2)oc(=O)n3C)CC1 | 14.5%
Cc1cccc(N2C(=O)NC(=O)/C(=C\c3cnc(-c4ccccc4)nc3)C2=O)c1 | 11.2%

Structure (SMILES) | hERG current change (%, negative = inhibition) at 1uM
CC(C)(C)[C@@H]1CCC(=O)N(CC[C@H](Sc2ccccc2)c2ccccc2)CC1 | 16.7%
O=S(=O)(c1ccc(Cl)c(NC(=S)N/N=C/c2c(F)cccc2F)c1)N1CCOCC1 | -0.887%
COCCCN1C(=O)C(=O)/C(=C(/O)c2ccc(S(=O)(=O)N3CCOCC3)cc2)C1c1ccc(Cl)cc1 (centres unmarked) | 13.7%
COc1cc2c(cc1NC(=O)Nc1ccccc1)oc1ccccc12 | 12.7%
COc1cc(CCCN2CCNC[C@H]2Cc2ccc(O)cc2)cc(OC)c1OC | 12.8%
CCOc1cc(NC(=O)c2ccco2)c(OCC)cc1NC(=O)COc1ccccc1C | 22.4%
CCOC(=O)c1nn(-c2ccccc2)c(C(=O)OCC)c1N | 7.57%
N#Cc1cccc(NC(=O)COC(=O)c2ccccc2C(=O)c2ccc(Cl)c([N+](=O)[O-])c2)c1 | 8.6%
CN(C)CCCn1c(N)c(C#N)c2nc3ccccc3nc21 | 8.29%
CCC(C)N(C(=O)COC(=O)c1nc(Cl)ccc1Cl)C1CCS(=O)(=O)C1 (centres unmarked) | 13.7%
Cc1ccc(-c2ccc(=O)n(CC(=O)NCc3ccc(F)cc3)n2)cc1 | 6.67%
Cc1cccc(NC2SC(=O)N(CC(=O)O)C2=O)c1 (centres unmarked) | 11.1%
CCOC(=O)C1=C(N)Oc2c(oc(CO)cc2=O)C1c1ccc(F)c(F)c1 (centres unmarked) | 9.25%
COc1ccc(N(CCC(=O)O)S(=O)(=O)c2ccc(C)c(C)c2)cc1 | 8.65%
CC(C)(CO)NCc1ccc(Br)cc1.Cl | 5.93%
O=C(COc1ccc2c3c(c(=O)oc2c1)CCC3)NCc1ccncc1 | 5.75%
CC1(C)Cc2c(c(-c3ccco3)nc3sc4c(NCCN5CCOCC5)ncnc4c23)CO1 | 13%
Cc1nc(NCCc2ccccc2)c2nnn(Cc3ccccc3)c2n1 | 18.3%
CC(Nc1nc(-c2ccc(F)cc2)cs1)c1nc2cc(Cl)c(N3CCCCC3)cc2n1CCCO (centres unmarked) | 15.7%
COc1ccc(CCC(C)NC(=O)CCc2ccccc2)c(OC)c1 (centres unmarked) | 6.95%
CC(CCC(=O)O)C1CC[C@@]2(C)C3C(=O)CC4C(C)(C)C(O)CC[C@]4(C)C3C(=O)C[C@]12C (some centres unmarked) | 15.6%
CS(=O)(=O)N1CCc2cc(C(=O)Nc3cccc([N+](=O)[O-])c3)ccc21 | 13.9%
CCOc1ccc(C(C)C)cc1S(=O)(=O)Nc1ccc(Cl)cn1 | 10.9%
CC1COC(Cn2c3ccccc3c3ccccc32)O1 (centres unmarked) | 14.5%
COc1ccc(OC)c(/C=N/N2CCN(c3ccc(Cl)cc3)CC2)c1 | 11.8%
OCCCNc1nc(-c2ccc(Br)cc2)nnc1-c1ccc(Cl)cc1 | 0.291%
